Read counts are not given, so values of variants with three or more changes are uncertain.

This passage reports self-cleavage results from the RNAGym collection of RNA variant scans (doi:10.1093/nar/gkz1192).

The chains are these.
B1: CPEB3 Ribozyme (parent)
chain: UAACAGGGGGCCACAGCAGAAGCGUUCACGUCGCAGCCCCUGUCAGAUUCUGGUGAAUCUGCGAAUUCUGCUGUAUAUCUC

The variants in the series derive from B1. Nature of the series: self-cleavage, relative activity (ratio to wild type); higher = more cleavage; in vitro, sequencing. The method, boiled down: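 Relative activity was defined as the cleaved/total read fraction for a variant divided by the same fraction for the unmutated ribozyme. CPEB3 self-cleaving ribozyme libraries were made by rounds of error-prone PCR, barcoded, and transcribed in vitro with T7 RNA polymerase for 5 hours at 37°C, and cleavage ran through transcription plus a 15 min DNase I step before EDTA. Illumina sequencing of template-switched reverse transcripts gave the reads, and DNA sequencing mapped the barcodes. Averages come from three batches, using variants with at least 5 reads.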
For A18G A20G C50U U76A, the self-cleavage was found to be 0.21. For the variant A18G A20G U51A U54A U67C U72G, the self-cleavage turned out to be 0.22. Consider A18C G19A C40A U43C A64U A65G U80C, for which the self-cleavage worked out at 0.1. Consider A18G A20U U49A, for which the self-cleavage is 0.34. With C17U U51C A64G U78C the figure was 0.09; with C17U U31C U51A A77U U78C, 0.43. For G16C U58C U72C, the self-cleavage is 0.25. Regarding A18G A21G U67G, the self-cleavage came to 0.6. For the variant G16C U60A U66C G73C, the self-cleavage worked out at 0.07. Take C17U C29G U58C U78A: the self-cleavage came to 0.03. With G16C U26C U60C the figure was 0.54; with C17U U25C U78C, 0.12. Take C17U C29A U49C U69C: the self-cleavage came out at 0.23.

In the case of C17A C23U U25C U26C, the self-cleavage came out at 0.16.

A18G A20G U41C: the self-cleavage was 0.47.

As to C17U C32U A35U U66C C71A U72A, the self-cleavage worked out at 0.07. Take G16U U26A U41A U80A: the self-cleavage came out at 0.08. Consider C17G U51A A64U, for which the self-cleavage amounted to 0.37.

Regarding A18C A20G U25C, the self-cleavage was 0.09. Regarding A18C C29U U41C A56G C62U U72G A75G, the self-cleavage was 0.11.

In the case of C17A U43C U49C, the self-cleavage stood at 0.09.

Consider A18G A21G U25C A35G A45G G61A U72C, for which the self-cleavage is 0.05. On to C17G A21U A56G, for which the self-cleavage came out at 0.2.

C17G A64U A77G: the self-cleavage was 0.11.

Turning to A18C A28U U43C U51A C68U, the self-cleavage was determined as 0.4.

With G16U U26A U49A U67A G70U, the self-cleavage stood at 0.05. Under G16A U51A U76C U80A stands 0.86; under G16A U66C A75G A77G, 0.09; under C17U U25C U43A A45U U48C U66C, 0.19.

In the case of A18G A21U C29U A35U U51C, the self-cleavage came out at 0.22. For A18C U26C A45U, the self-cleavage was 0.29. As to C17G U25C A56G U72A, the self-cleavage turned out to be 0.14. On to A18C G33A U48C U49C C62U, for which the self-cleavage is 0.14. As for A18C A45U U72C, the self-cleavage came to 0.25.

A18G A20U U25A U60A: the self-cleavage came out at 0.05. For A18G A21G A35U A57G A65G G70U, the self-cleavage was 0.08. On to C17U U25C A28G U41A G63U, for which the self-cleavage was found to be 0.11. With G16C A28G U80C the figure was 0.53; with A18G A20G C23G A35G A56G, 0.07; with C17U A45C U69A, 0.17. Turning to A18C U43C A64U U69C, the self-cleavage was found to be 0.11.

Consider G16U A18G U31C, for which the self-cleavage came out at 0.25.

A18C C37U U51A C62G: the self-cleavage came to 0.07.

Take G16C U31C A47U U60C A75G: the self-cleavage turned out to be 0.06. For C17U A18G G24A U25C U41A U66G, the self-cleavage was determined as 0.05.

Regarding A18G A20G U31C U54C A57G A64G U67C, the self-cleavage was found to be 0.2.

On to A18C U26C U78C, for which the self-cleavage worked out at 0. Under A18G A21G A35G U69C stands 1.19; under G16U A45G C81U, 0.19.

Turning to C17U A35U A45C U58A, the self-cleavage worked out at 0.07. For G16A U31C A45G U80C, the self-cleavage is 0.31. Under G16U A18G G36A U41C C50U C68A U72A stands 0.05. Under A18C U48C G53A G63U stands 0.38. With A18G A21G U26C U41C U69C, the self-cleavage was 0.2.

A18C G19U U41C A65U: the self-cleavage stood at 0.09. For A18C A20G A35U U41A, the self-cleavage is 0.32. For A18C A45G U72A, the self-cleavage worked out at 0.17. Regarding C17U U31C U41C U60C U66C, the self-cleavage came to 0.05. For A18C U54C A65G, the self-cleavage came out at 0.12. Consider C17U U41A C62A C68A, for which the self-cleavage came to 0.1.

Consider A18C G52A U60C U72A, for which the self-cleavage is 0.18. In the case of C17A G30C A56G U76C, the self-cleavage was found to be 0.25. Under C17U A20G A28G U66C U78C stands 0.06.

As to G16C U25C G33U A57G G73C, the self-cleavage turned out to be 0.17. Turning to C17G C62U A64G, the self-cleavage turned out to be 0.08. For G16U U54A U66C, the self-cleavage was 0.11. Under C17A U25C U26A stands 0.44; under C17G U49A U78C, 0.36.

In the case of A18G A20U C29U U51C, the self-cleavage was 0.07. Regarding C17G C62U U80C, the self-cleavage stood at 0.05. Regarding C17U A65G U74A, the self-cleavage is 0.37. Regarding A18G A20U U31C A35G U49C U78C, the self-cleavage stood at 0.04. Consider C17A U49G A56G U60G, for which the self-cleavage came to 0.17. Take G16U A20U U48C U78A: the self-cleavage was determined as 0.5. Under C17U A18U U41C U66C C71A U78C stands 0.06.

For the variant C17U G19A A20C U25A U54G U66C, the self-cleavage was 0.23. G16C C32A C44A U66A A77G: the self-cleavage worked out at 0.1. For A18C U26C A47U U60G U74C, the self-cleavage stood at 0.17. In the case of C17A U51C A64G, the self-cleavage turned out to be 0.16. For C17A U41C U48C A64U U80C, the self-cleavage came to 0.11. C17U U26C U41A U43C A57G A65G: the self-cleavage stood at 0.07. G16U U31C U41C U54A U58A U72C: the self-cleavage is 0.1. Turning to C17A A64G U66A, the self-cleavage is 0.16. With C17A U67C A75U the figure was 0.07.
